Experimental findings from PubChem BioAssay AID488969 (Vanderbilt High Throughput Screening Facility, 2010) are described below.

SMILES strings stand for the structures. Over roughly 110,000 compounds, “z-score” has its median near -0.1; the highest 2% begin near 2. This is one part of the list. The source made the active and inactive calls.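 How the source made its calls: active means z-score in the third read window above 3 or below -3; inactive means the rest.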

The assay addresses Metabotropic glutamate receptor 8 (Rattus norvegicus) (UniProt P70579). Put plainly: mGluR8 Gi/Go-coupled signaling modulation – cell-based, rat, thallium flux, HTS, primary screen (AID 488969). Conditions: HEK293 rat mGluR8, GIRK (G protein-gated inwardly rectifying potassium channel) thallium flux, FluoZin2; at 10 µM; stronger effect = higher value; submaximal glutamate (EC20) added with thallium.
Chain of UniProt P70579 (P70579 whole entry, looked up): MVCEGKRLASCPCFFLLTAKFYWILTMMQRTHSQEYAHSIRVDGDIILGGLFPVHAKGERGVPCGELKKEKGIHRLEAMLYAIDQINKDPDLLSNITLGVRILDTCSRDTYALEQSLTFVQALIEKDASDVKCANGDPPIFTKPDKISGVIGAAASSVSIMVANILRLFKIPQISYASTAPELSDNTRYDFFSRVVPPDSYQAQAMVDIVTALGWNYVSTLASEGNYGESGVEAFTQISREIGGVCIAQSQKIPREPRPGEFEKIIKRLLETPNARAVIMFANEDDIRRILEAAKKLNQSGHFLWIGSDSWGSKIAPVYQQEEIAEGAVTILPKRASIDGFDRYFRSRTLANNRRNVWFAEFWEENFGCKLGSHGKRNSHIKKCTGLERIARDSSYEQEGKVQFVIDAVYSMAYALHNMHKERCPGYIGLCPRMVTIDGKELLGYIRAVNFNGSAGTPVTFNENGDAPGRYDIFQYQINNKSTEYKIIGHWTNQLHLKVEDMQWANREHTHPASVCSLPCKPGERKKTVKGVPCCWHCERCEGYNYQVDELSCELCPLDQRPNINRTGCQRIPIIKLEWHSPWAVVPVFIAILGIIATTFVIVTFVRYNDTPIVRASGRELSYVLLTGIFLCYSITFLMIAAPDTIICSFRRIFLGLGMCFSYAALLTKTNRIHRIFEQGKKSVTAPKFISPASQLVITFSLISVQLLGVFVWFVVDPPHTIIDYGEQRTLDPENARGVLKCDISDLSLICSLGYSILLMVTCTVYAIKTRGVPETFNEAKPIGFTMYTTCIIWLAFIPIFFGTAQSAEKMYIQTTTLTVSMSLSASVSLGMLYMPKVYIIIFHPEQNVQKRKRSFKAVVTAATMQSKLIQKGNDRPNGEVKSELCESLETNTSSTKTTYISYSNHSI
`Cn1cccc1Cc1nnc(SCC(=O)NCCc2ccccc2)n1-c1ccc(F)cc1`: the z-score was -2.82.
`COc1cc(CNc2ccc3[nH]c(=O)[nH]c3c2)ccc1OCC(=O)NC(C)(C)C` came in with a z-score of -0.964.
The compound `CCC(=O)c1cc2c(cc1NC(=O)c1ccccc1)OCCO2` registered a z-score of -0.258.
The same measure for `Cc1cccc(C(=O)c2ccccc2C(=O)O)c1O`: 0.929.
`CCN(CC)S(=O)(=O)c1ccc(OC)c(NC(=O)CSc2ccccc2)c1` showed a z-score of -0.541.
In turn, `CCOC(=O)c1csc(NC(=O)CSc2nnnn2-c2ccc(OC)cc2)n1` came in with a z-score of 0.0329.
As to `Cc1nc(-c2ccccc2)c(-c2ccccc2)[nH]1`, the z-score was 0.247.
`Cc1nn(-c2cccc(Cl)c2)c2nc(-c3ccco3)cc(C(=O)O)c12` gave a z-score of -1.12.
As for `Cc1ccc(CNC(=O)Cc2csc(Nc3nc(=S)[nH]c4ccccc34)n2)cc1`, the figure is active: 10.7; as for `O=C(c1ccc(F)cc1)c1c[nH]c(C(=O)NCc2ccco2)c1`, -0.337.
As for `C=CCOc1ccc(Cl)cc1CNCCCN1CCOCC1`, the z-score was -1.78.
As to `CCOC(=O)c1c(NC(=O)CCl)sc(C(=O)N(CC)CC)c1C`, the z-score was -0.691.
Regarding `COc1ccc(/C(O)=C2\C(=O)C(=O)N(CCN(C)C)C2c2cc(OC)c(OC)c(OC)c2)c(C)c1` (stereo not given), the z-score is -1.04.
Turning to `S=C(NCCN1CCOCC1)Nc1ccc(Cl)cc1`, the z-score is -0.102.
Regarding `CCn1c(SCC(=O)N/N=C/c2cc(OC)c(OC)c(OC)c2)nc2ccccc21`, the z-score was -0.917.
The compound `COC(=O)C(Cc1ccccc1)NC(=O)C12CC3CC(CC(C3)C1)C2` (stereo not given) yielded a z-score of -0.512.
`Cc1sc(N/N=C/c2ccco2)nc1-c1ccccc1` displayed a z-score of -0.188.
Regarding `O=C(COC(=O)c1cn(-c2ccccc2)nc1-c1ccccc1)c1cccc([N+](=O)[O-])c1`, the z-score was -0.0786.
As for `CCOC(=O)c1cc(C(C)=O)n2ccccc12`, the figure is -0.131; as for `O=C(NCc1ccco1)c1cnn2c(C(F)(F)F)cc(-c3ccco3)nc12`, 0.361.
As for `Cc1cc(C)nc(NS(=O)(=O)c2ccc(N/C=C/C(=O)c3ccc(Cl)c(Cl)c3)cc2)n1`, the figure is 0.0997; as for `O=C(O)CCCC(=O)Nc1cccc(-c2nc3ccccc3[nH]2)c1`, -0.51.
As for `CCN(Cc1ccccc1)C(=O)Cn1cnc2c1c(=O)n(C)c(=O)n2C`, the figure is -0.0176; as for `Cc1c(C)n(CCC#N)c2ccccc12`, 0.668.
In turn, `CCOC(=O)C(C)Oc1ccsc1C(=O)OC` (stereo not given) registered a z-score of 0.992.
In turn, `COC(=O)c1cccc(NC(=O)Cc2nc(-c3ccccc3)sc2-c2ccc(C)cc2)c1` registered a z-score of -0.318.
As to `CCCCN(CC)S(=O)(=O)c1ccc(C(=O)N=c2sc3cc(NC(C)=O)ccc3n2C)cc1`, the z-score was -0.0806.
Compound `Nc1nnc(SCC(=O)Nc2ccc(S(=O)(=O)N3CCOCC3)cc2)s1` returned a z-score of 0.307.
As for `O=C(Cc1cccs1)Nc1nnc(SCc2cccc3ccccc23)s1`, the figure is -0.104.
`CCOC(=O)c1sc(NC(=O)c2ccccc2)cc1C` yielded a z-score of -0.333.
